Lines with a small IC50 respond at low doses; a fit beyond the top or the lowest dose is shown as a bound at that dose. AUC sums up the same curve from the lowest dose to the 256-fold higher top dose; the more sensitive the line, the further below 1. For some of these results: Any top dose called inferred is not printed in the source and was worked back from the curve model. For some of these results: Where an entry number is given, a second screen of the drug exists; the two often differ.
Columns and labels:
Assay in all cases: Viability of human cancer cell lines after 72 h of drug (GDSC screen)
[1] = compound: C/C=C(/C)C(=O)O[C@H]1C(C)=C2[C@H]([C@@H]1OC(=O)CCCCCCC)[C@@](C)(OC(C)=O)C[C@H](OC(=O)CCC)[C@@]1(O)[C@H]2OC(=O)[C@@]1(C)O [Thapsigargin]; settings: top dose 0.512 µM; top dose inferred
Description: (§1)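 Human cancer cell lines in 384-well plates, medium with 10% serum, drug for 72 h over a 256-fold dose range (nine 2-fold or five 4-fold steps up to the top dose). Adherent lines were fixed and stained with the nucleic acid dye Syto60, suspension lines read with resazurin; signal relative to control wells, capped at 0 and 100%. One two-parameter sigmoid per drug and line, fitted in a mixed model over all curves with the slope shared within a line.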

[2] = compound: C=CC(=O)Nc1cc(-n2c(=O)ccc3cnc4ccc(-c5cn[nH]c5)cc4c32)ccc1C [QL-X-138]; settings: top dose 10.24 µM; top dose inferred
Description: as §1

[3] = compound: CCn1c(-c2nonc2N)nc2cnc(Oc3cccc(NC(=O)c4ccc(OCCN5CCOCC5)cc4)c3)cc21 [GSK269962A]; settings: top dose 5 µM; screen: GDSC drug entry 1192; top dose inferred
Description: as §1

[4] = compound: COc1cc(N2CCC(O)CC2)ccc1Nc1cc(Nc2ccccc2S(=O)(=O)C(C)C)c2cc[nH]c2n1 [MPS-1-IN-1]; settings: top dose 20 µM; top dose inferred
Description: as §1

[5] = compound: COc1cc(O)c2c(c1)/C=C/C[C@H](O)[C@H](O)C(=O)/C=C\C[C@H](C)OC2=O [(5Z)-7-Oxozeaenol]; settings: top dose 10 µM; top dose inferred
Description: as §1

[6] = compound: COc1cc2ncnc(-n3nc(-c4ccccn4)nc3N)c2cc1OC [CP466722]; settings: top dose 16 µM; top dose inferred
Description: as §1

[7] = compound: COc1nc(C)cnc1NS(=O)(=O)c1cccnc1-c1ccc(-c2nnco2)cc1 [Zibotentan]; settings: top dose 20 µM; top dose inferred
Description: as §1

[8] = compound: C[C@]1(c2nc3c(C(N)=O)cccc3[nH]2)CCCN1 [ABT-888]; settings: top dose 5 µM; top dose inferred
Description: as §1

[9] = compound: Cc1ccc(F)c(NC(=O)Nc2ccc(-c3cccc4[nH]nc(N)c34)cc2)c1 [ABT-869]; settings: top dose 1.024 µM; top dose inferred
Description: as §1

[10] = compound: Cc1cnc(-c2cnc(NCCNc3ccc(C#N)cn3)nc2-c2ccc(Cl)cc2Cl)[nH]1 [CHIR-99021]
Description: as §1

[11] = compound: Nc1ccn([C@@H]2O[C@H](CO)[C@@H](O)[C@@H]2O)c(=O)n1 [Cytarabine]; settings: top dose 2 µM
Description: as §1

[12] = compound: O=c1cc(-c2cccc3c2Sc2ccccc2S3)oc(N2CCOCC2)c1 [KU-55933]; settings: top dose 10 µM
Description: as §1

[13] = top dose 2.56 µM, screen: GDSC drug entry 154
[14] = top dose 10 µM, screen: GDSC drug entry 1241, top dose inferred

Row | Cell Line | AUC [1] | IC50 [1] [µM] | AUC [2] | IC50 [2] [µM] | AUC [3] | IC50 [3] [µM] | AUC [4] | IC50 [4] [µM] | AUC [5] | IC50 [5] [µM] | AUC [6] | IC50 [6] [µM] | AUC [7] | IC50 [7] [µM] | AUC [8] | IC50 [8] [µM] | AUC [9] | IC50 [9] [µM] | AUC [10, 13] | IC50 [10, 13] [µM] | AUC [10, 14] | IC50 [10, 14] [µM] | AUC [11] | IC50 [11] [µM] | AUC [12] | IC50 [12] [µM]
1 | KYSE-220 (oesophagus, adherent) | 0.266 | 0.00661 | 0.804 | 5.46 | 0.959 | > 5 | 0.897 | > 20 | 0.806 | 5.42 | 0.847 | 12.8 | 0.985 | > 20 | 0.983 | > 5 | 0.979 | > 1.02 | 0.985 | > 2.56 | 0.949 | > 10 | 0.824 | 1.28 | 0.977 | > 10
2 | KYSE-450 (oesophagus, adherent) | 0.18 | 0.00375 | 0.577 | 1.02 | 0.941 | > 5 | 0.723 | 5.13 | 0.822 | 5.43 | 0.791 | 6.77 | 0.987 | > 20 | 0.977 | > 5 | 0.987 | > 1.02 | 0.953 | > 2.56 | 0.874 | 8.8 | 0.838 | 1.24 | 0.962 | > 10
3 | KYSE-510 (oesophagus, adherent) | 0.112 | 0.00252 | 0.906 | 9.76 | 0.977 | > 5 | 0.946 | > 20 | 0.786 | 3.57 | 0.946 | > 16 | 0.992 | > 20 | 0.976 | > 5 | 0.991 | > 1.02 | 0.992 | > 2.56 | 0.99 | > 10 | 0.657 | 0.313 | 0.976 | > 10
4 | KYSE-520 (oesophagus, adherent) | 0.306 | 0.00749 | 0.732 | 3.75 | 0.979 | > 5 | 0.822 | 17.3 | 0.793 | 6.43 | 0.827 | 14.6 | 0.979 | > 20 | 0.951 | > 5 | 0.98 | > 1.02 | 0.969 | > 2.56 | 0.979 | > 10 | 0.842 | > 2 | 0.965 | > 10
5 | LC-1-sq (lung squamous cell carcinoma, adherent) | 0.303 | 0.00806 | 0.865 | > 10.2 | 0.976 | > 5 | 0.978 | > 20 | 0.976 | > 10 | 0.84 | 13.8 | 0.981 | > 20 | 0.948 | > 5 | 0.982 | > 1.02 | 0.928 | > 2.56 | 0.918 | > 10 | 0.897 | > 2 | 0.938 | > 10
6 | LCLC-103H (large cell lung carcinoma, adherent) | 0.135 | 0.00268 | 0.616 | 1.29 | 0.984 | > 5 | 0.956 | > 20 | 0.898 | > 10 | 0.817 | 7.9 | 0.99 | > 20 | 0.957 | > 5 | 0.989 | > 1.02 | 0.968 | > 2.56 | 0.987 | > 10 | 0.951 | > 2 | 0.933 | > 10
7 | LN-229 (glioma, adherent) | 0.442 | 0.0222 | 0.897 | > 10.2 | 0.87 | 4.62 | 0.923 | > 20 | 0.562 | 0.925 | 0.898 | > 16 | 0.988 | > 20 | 0.987 | > 5 | 0.988 | > 1.02 | 0.987 | > 2.56 | 0.88 | > 10 | 0.77 | 0.757 | 0.968 | > 10
8 | LN-405 (glioma, adherent) | 0.834 | 0.464 | 0.74 | 3.8 | 0.931 | > 5 | 0.984 | > 20 | 0.737 | 3.62 | 0.815 | 11.8 | 0.984 | > 20 | 0.978 | > 5 | 0.982 | > 1.02 | 0.983 | > 2.56 | 0.957 | > 10 | 0.955 | > 2 | 0.963 | > 10
9 | LNZTA3WT4 (glioma, adherent) | 0.734 | 0.146 | 0.921 | > 10.2 | 0.886 | > 5 | 0.957 | > 20 | 0.595 | 1.13 | 0.92 | > 16 | 0.979 | > 20 | 0.988 | > 5 | 0.987 | > 1.02 | 0.981 | > 2.56 | 0.971 | > 10 | 0.633 | 0.289 | 0.972 | > 10
10 | LOU-NH91 (lung squamous cell carcinoma, adherent) | 0.386 | 0.0151 | 0.974 | > 10.2 | 0.872 | > 5 | 0.891 | > 20 | 0.682 | 2.12 | 0.93 | > 16 | 0.985 | > 20 | 0.986 | > 5 | 0.985 | > 1.02 | 0.985 | > 2.56 | 0.948 | > 10 | 0.842 | 1.59 | 0.986 | > 10
11 | LU-135 (small cell lung carcinoma, suspension) | 0.138 | 0.00319 | 0.48 | 0.57 | 0.842 | 2.67 | 0.864 | 12.8 | 0.897 | 8.69 | 0.909 | 15.8 | 0.99 | > 20 | 0.992 | > 5 | 0.992 | > 1.02 | 0.958 | > 2.56 | 0.99 | > 10 | 0.951 | > 2 | 0.95 | > 10
12 | M059J (glioma, adherent) | 0.31 | 0.00893 | 0.669 | 1.98 | 0.896 | > 5 | 0.94 | > 20 | 0.715 | 2.69 | 0.798 | 8.38 | 0.985 | > 20 | 0.985 | > 5 | 0.965 | > 1.02 | 0.92 | > 2.56 | 0.94 | > 10 | 0.858 | 1.88 | 0.981 | > 10
13 | MC-IXC (neuroblastoma, adherent) | 0.314 | 0.0113 | 0.638 | 1.38 | 0.996 | > 5 | 0.847 | 9.21 | 0.805 | 3.53 | 0.694 | 2.97 | 0.992 | > 20 | 0.996 | > 5 | 0.995 | > 1.02 | 0.91 | 1.86 | 0.987 | > 10 | 0.338 | 0.0506 | 0.977 | > 10
14 | MDA-MB-330 (breast, adherent) | 0.217 | 0.00414 | 0.917 | > 10.2 | 0.965 | > 5 | 0.977 | > 20 | 0.846 | 8.91 | 0.822 | 11.1 | 0.985 | > 20 | 0.986 | > 5 | 0.985 | > 1.02 | 0.955 | > 2.56 | 0.981 | > 10 | 0.958 | > 2 | 0.966 | > 10
15 | MDA-MB-361 (breast, adherent) | 0.171 | 0.00326 | 0.762 | 3.64 | 0.952 | > 5 | 0.979 | > 20 | 0.796 | 4.65 | 0.917 | > 16 | 0.987 | > 20 | 0.981 | > 5 | 0.989 | > 1.02 | 0.987 | > 2.56 | 0.984 | > 10 | 0.897 | > 2 | 0.975 | > 10
16 | MDA-MB-415 (breast, adherent) | 0.689 | 0.13 | 0.949 | > 10.2 | 0.965 | > 5 | 0.982 | > 20 | 0.797 | 6.66 | 0.973 | > 16 | 0.983 | > 20 | 0.983 | > 5 | 0.983 | > 1.02 | 0.982 | > 2.56 | 0.96 | > 10 | 0.829 | 1.88 | 0.921 | > 10
17 | MDA-MB-453 (breast, adherent) | 0.867 | > 0.512 | 0.444 | 0.443 | 0.928 | > 5 | 0.949 | > 20 | 0.82 | 6.59 | 0.829 | 11.5 | 0.986 | > 20 | 0.986 | > 5 | 0.974 | > 1.02 | 0.984 | > 2.56 | 0.98 | > 10 | 0.919 | > 2 | 0.979 | > 10
18 | MEL-JUSO (melanoma, adherent) | 0.173 | 0.00281 | 0.962 | > 10.2 | 0.881 | > 5 | 0.75 | 7.23 | 0.503 | 0.637 | 0.827 | 11.4 | 0.983 | > 20 | 0.957 | > 5 | 0.959 | > 1.02 | 0.967 | > 2.56 | 0.966 | > 10 | 0.434 | 0.0806 | 0.979 | > 10
19 | MES-SA (uterus, adherent) | 0.118 | 0.00254 | 0.909 | > 10.2 | 0.516 | 0.343 | 0.992 | > 20 | 0.43 | 0.414 | 0.934 | > 16 | 0.992 | > 20 | 0.992 | > 5 | 0.992 | > 1.02 | 0.992 | > 2.56 | 0.989 | > 10 | 0.794 | 0.773 | 0.982 | > 10
20 | MFE-280 (endometrium, adherent) | 0.552 | 0.0463 | 0.653 | 1.92 | 0.707 | 1.42 | 0.932 | > 20 | 0.674 | 2.19 | 0.844 | > 16 | 0.979 | > 20 | 0.982 | > 5 | 0.967 | > 1.02 | 0.972 | > 2.56 | 0.98 | > 10 | 0.967 | > 2 | 0.979 | > 10
